# This is one part of the list.
# Tested on: T1, C. trachomatis L2/434/Bu expressing GFP (CTL2-GFP)
# T1 construct: L2/434/Bu GFP intracellular growth in HeLa cells
# Parameters: species or system HeLa; C. trachomatis total inclusion area by high-content imaging, normalised to DMSO
# Conditions: total inclusion area; 28.5 h, 10 µM; inhibitor
# Method in brief: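 High-content images of fixed, Hoechst-stained infected cultures supply inclusion area and count (growth) plus nuclei number (viability), complementing bulk GFP/resorufin fluorescence. MIC determination is unchanged from the primary assay.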
row,Compound,% of control remaining
1,COc1ccc(S(=O)(=O)NCCSCc2cccc(C)c2)cc1Cl [CBK268477],77.6218
2,Cc1cc(OCC(O)CN2CCN(Cc3ccc4c(c3)OCO4)CC2)cc(C)c1Cl (centres unmarked) [CBK074374],88.4628
3,O=C1CSC(c2cccnc2)N1CCc1ccccn1 (centres unmarked) [CBK017292],83.0035
4,COc1cc(OC)cc(-c2[nH][nH]c(=O)c2CCN)c1 [CBK288414],125.667
5,CC(C)(C)NC(=O)CNS(=O)(=O)c1ccccc1 [CBK265807],96.8084
6,O=C(Nc1cccc(N2CCCC2)c1)c1cc(C2CC2)on1 [CBK283139],87.6318
7,N#Cc1ccc(NC(=O)CC2(CC(=O)O)CCCC2)cc1 [CBK286979],128.082
8,O=C(Cn1cnc2c(c1=O)CCCC2)Nc1ccc(Cl)c(Cl)c1 [CBK304655],89.979
9,O=C(O)C1(NCc2ccccc2Cl)CCCCC1 [CBK287269],113.318
10,O=C(O)CN1C(=O)C(=Cc2ccc(-c3ccc(Br)cc3)o2)SC1=S [CBK296075],104.84
11,COc1ccccc1N1CC(C(=O)Nc2ccc(C(=O)O)cc2)CC1=O (centres unmarked) [CBK269606],95.2517
12,COc1ccc(CC(=O)N2CCC(c3cc4cnccc4[nH]3)CC2)cc1 [CBK283451],75.5706
13,O=c1ccc2c(-c3cccc(C(F)(F)F)c3)ccnc2[nH]1 [CBK073733],107.36
14,O=C(Cn1nc2n(c1=O)CCCCC2)NCc1ccccc1Cl [CBK304642],64.0295
15,CCn1c2cc(C)sc2c2cnn(CC(=O)N(C)C)c(=O)c21 [CBK284173],93.4111
16,COC1CCC(C(=O)Nc2cnc(-c3ccc(F)c(Cl)c3)c(-c3ccc(C(C)=O)s3)n2)CC1 (centres unmarked) [CBK036718],116.44
17,COC(=O)c1cc(-c2c[nH]c3ccccc23)n[nH]1 [CBK241010],107.605
18,CCN1CCN(C(=O)COc2cccnc2)CC1 [CBK200378],113.413
19,Clc1ccccc1-c1nccnc1NCc1ccncc1 [CBK037472],101.874
20,CC(C)c1ccc(NC(=O)CSc2n[nH]c(=O)n2-c2ccccc2)cc1 [CBK299826],115.725
21,O=C(CSC1=NCCS1)Nc1ccc(Cl)cn1 [CBK057917],84.1105
22,CN1CCN(C(=O)c2ccc(-c3cnc4[nH]c(=O)n(Cc5ccncc5)c4n3)cc2)CC1 [CBK064679],141.347
23,CC(C)C(C(=O)Nc1ccc(S(=O)(=O)N2CCOCC2)cc1)N1C(=O)c2ccccc2C1=O (centres unmarked) [CBK265607],88.9317

# Source: PMC12040169 (PLOS Biology, 2025)
